Data published in patent publication US12551573B2, “Compositions and methods for the targeting of PCSK9” (Scribe Therapeutics Inc., priority 2022, dated 2026).
Where two headings read alike, the source gives them in different places.

Test system: HBEGF locus
Assay type: cell-based, human
Conditions: high-throughput screen of dXR repression of the HBEGF gene
[1] = abundance of each domain in the library before vs after diphtheria toxin selection, listed domains met p-value <0.01 and log2(fold change) >2
[2] = change in abundance of each domain in the library before and after diphtheria toxin selection

B1: DOMAIN_20208 (protein, listed as Pteropus vampyrus)
chain: SQEPVSFLDVAVDFTQEEWQQLDPVQRTTYRDVMLENYSHLVALGYDSAKPNVIVKLEQGEEPWVAEGDLPCRSRPEEVWQ
With B1 the “Log2 (fold change)” value [1] was 2.4805.

B2: DOMAIN_20249 (protein)
chain: SQHLVTFEDVAVNFTQEEWTLLDQTQRDLYRDVMLENYQNLMALAGSESCKPHVNSPLEGAEELRTRARRILQSEFMAESD
modifications: Vicugna pacos
B2 was tested, and the “Log2 (fold change)” value [1] was 2.7041.

B3: DOMAIN_302 (protein, listed as Pan paniscus)
chain: MGPLTFTDVAIEFSLEEWQCLDTAQQNLYRNVMLENYRNLVFLGIAVSKPDLITCLEKEKEPCKMKRHEMVDEPPDGVSLL
In the case of B3, the “Log2 (fold change)” value [2] is reported as 2.5092.

B4: DOMAIN_20250 (protein, listed as Phascolarctos cinereus)
chain: PQELVTFEDVAVYLSKEEWGLLDPAQRRLYRDVMLENYGNVASLGLPVSKPDLISQLERTDLPLVPRLPQTEIEDLFDEKL
B4 was tested, and the “Log2 (fold change)” value [1] was 3.5525.

B5: DOMAIN_20287 (protein)
chain: LKGLVTFEDVAVEFTQEEWALLDPAQRTLYRDVMLENFRNLASLGDQVDKPGLIAQLEQEDKVMTEERGILPGTCPDVENP
modifications: Cercocebus atys
B5 was tested, and the “Log2 (fold change)” value [1] was 3.4486.

B6: DOMAIN_20318 (protein, listed as Callithrix jacchus)
chain: KPGAVSFADVAVYFSPEEWGCLRPAQRALYRDVMRETYGHLGALGFPGPKPALISWMEQESEAWSSAAQDPENGESLGGAR
B6 was tested, and the “Log2 (fold change)” value [1] was 3.5311.

B7: DOMAIN_20332 (protein, listed as Callithrix jacchus)
chain: EQEPVTFKDVAVDFTQEEWGQLDLVQRTLYRDVMLETYGHLLSVGNQTAKPEVISLLEQGEEPWSVEQTCPQRACPEWMRN
For B7, the “Log2 (fold change)” value [1] was 3.2855.

B8: DOMAIN_20345 (protein)
chain: MVSFEDVAVLLSQEEWDCLIPAQRGLYRDVMLETYGNLVSLGLQASKPDVISRLEQGDEPWTTHTLRTQGSWSWRHKREGY
modifications: Cebus imitator
B8 was tested, and the “Log2 (fold change)” value [1] was 3.8132.

B9: DOMAIN_20352 (protein)
chain: AQETVTFKDVAVDFTQEEWGQLDPVQRTLYRDVMLETYGHLLSVGNQIAKPEVISLLEQGEEPWSMERVYPPQRTCPEWMR
modifications: Vicugna pacos
For B9, the “Log2 (fold change)” value [1] was 2.9839.

B10: DOMAIN_20359 (protein, listed as Pteropus vampyrus)
chain: SKASVTFADLAVYFSQEEWEGLSPIQKDLYEDVMLETYQNLVSVGLSCRRPSVITLLEKGKAPWTVEPARQRRGPDSGAKC
In the case of B10, the “Log2 (fold change)” value [1] is reported as 3.9594.

B11: DOMAIN_20371 (protein)
chain: WKELLSFEDVAMYFTREEWNRLDWAQKDLYRDVMLENYRNMILLGFQFPKPEVICLLEQWEEPWILDLPRAGTRKASSSAC
modifications: Ursus arctos
B11 was tested, and the “Log2 (fold change)” value [1] was 2.8418.

B12: DOMAIN_20381 (protein, listed as Saimiri boliviensis)
chain: ALRSVMFSDISIDFSPEEWEYLDLEQKNLYRDVMLENYSNLVSLGCFISKPVVISLLEQGKEPWKVVRKRRQYPDLETKYE
In the case of B12, the “Log2 (fold change)” value [1] is reported as 2.0412.

B13: DOMAIN_313 (protein, listed as Pan paniscus)
chain: MGPLTIRDVTVEFSLEEWHCLDTAQQNLYRDVMLENYRNLVFLGIAVSKPDLITCLEQGKEPCNMKRHEMVAKPPVMCSHI
B13 was tested, and the “Log2 (fold change)” value [2] was 2.4558.

B14: DOMAIN_20398 (protein, listed as Physeter macrocephalus)
chain: SQESVSFEDVAVYFTQNQWASLDSAQRTLYRKVMLENYANVTSLAAFPFPKPDLILQLEQGEAPGGLDPWTPIRREVRGVC
With B14 the “Log2 (fold change)” value [1] was 3.1266.

B15: DOMAIN_20436 (protein, listed as Sus scrofa)
chain: LVFEDVAINFTPEEWALLDPAQRRLYRDVMLETFKNLAFVGSCLHVKTSGSSAQRDILENVLCSEEKIVRFKRNDSKSVLG
In the case of B15, the “Log2 (fold change)” value [1] is reported as 2.724.

B16: DOMAIN_20455 (protein)
chain: MEGLVMFQDLSIDFSQEEWECLDAAQKDLYRDVMMENYSSLVSLGLSTPKPDVISLLEQGKEPWMVSRDVLGGWCPDRLKK
modifications: Nomascus leucogenys
For B16, the “Log2 (fold change)” value [1] was 3.112.

B17: DOMAIN_20462 (protein, listed as Trichechus manatus)
chain: FQESVVFSDVSIAFSQEEWAHLDLEQKDLYRDVMLENYSNLVSLGCFVSKPDVISLLEQGKEPWKIVRKGRRRYPDLETRY
For B17, the “Log2 (fold change)” value [1] was 5.4429.

B18: DOMAIN_20469 (protein, listed as Equus caballus)
chain: PPSLVTFGDVAIDFSQEEWEWLNSAQRTLYRNVMLENYRNLASLGLCGSKPDMISSLEQRREPWITKRKLTRGRCPDLKAV
For B18, the “Log2 (fold change)” value [1] was 2.7506.

B19: DOMAIN_20487 (protein, listed as Mandrillus leucophaeus)
chain: EKGPLTFRDVVIEFSQEEWQCLDTAQQDLYRKVMLENFRNLVFLGIDVSKPDLITCLEQGKNPWNMKRHSMVATPPGVFFV
With B19 the “Log2 (fold change)” value [1] was 2.8325.

B20: DOMAIN_20524 (protein)
chain: PQKSVTFEDVAVYFTQAEWDGLSPAQRTLYRDVMLENYGNVASLGFPLLKPAVISQLEGGGDLGGPSPLAAGTGLQGLRTV
modifications: Nomascus leucogenys
B20 was tested, and the “Log2 (fold change)” value [1] was 3.2893.

B21: DOMAIN_20537 (protein, listed as Chlorocebus sabaeus)
chain: KPGTVSFADVAVYFSREEWGCLRPAQRALYRDVMRETYGHLGALGVGGSKPALISWVEEAAELWDPAARDPEVTKCPTETD
In the case of B21, the “Log2 (fold change)” value [1] is reported as 3.2762.

B22: DOMAIN_20540 (protein, listed as Mandrillus leucophaeus)
chain: VHGSVTFRDVAIDFSQEEWECLQPEQRTLYRDVMLENYSHLISLGSSVSKPDVITLLEQEKEPWIVVRKETSRWYPDLESK
With B22 the “Log2 (fold change)” value [1] was 2.8477.

B23: DOMAIN_20545 (protein, listed as Sus scrofa)
chain: CKESVIFKDVCVNFSLEEWECLDLTQRNLYRCVMLENYSNLVSVVGLSIPKPDVISLLEQGKEPWGVFDSEMTRGLNQDCG
With B23 the “Log2 (fold change)” value [1] was 2.711.

B24: DOMAIN_344 (protein, listed as Pan paniscus)
chain: MSQVTFSDVAIDFSHEEWACLDSAQRDLYKDVMVQNYENLVSVGLSVTKPYVIMLLEDGKEPWMMEKKLSKDWESRWENKE
With B24 the “Log2 (fold change)” value [2] was 2.4948.

B25: DOMAIN_20561 (protein, listed as Chrysochloris asiatica)
chain: RREPVTFEDVAVYFSENEWSSLAPAQRALYRDVMLENYGAVASLAFSFPKPALISQLERGEAPWSLAPQGALDGEGSRGIS
With B25 the “Log2 (fold change)” value [1] was 3.8309.

B26: DOMAIN_20565 (protein, listed as Suricata suricatta)
chain: KPGAVSFADVAVYFSPEEWGCLRPAQRALYRDVMRETYGHLGALGFRGTKPALICWVEEEADLWGPEARDPEVGACLTEAD
B26 was tested, and the “Log2 (fold change)” value [1] was 3.148.

B27: DOMAIN_20601 (protein, listed as Sus scrofa)
chain: SQVSVTFEDVAVLFSRDEWRRLGPSQKNLYQDVMLENYSNLVSLGLPFSKPKVISLLQQGEDPWKVEKESPGSFPGCKSSP
In the case of B27, the “Log2 (fold change)” value [1] is reported as 2.9097.

B28: DOMAIN_20652 (protein, listed as Neophocaena asiaeorientalis)
chain: SQGSVTFRDVAVDFSREEWEWLQPAQRDLYRHVMLENYGHLVSLGLNISKPHVVSLLEQGKEPWLGKDASRGLFSASESNG
With B28 the “Log2 (fold change)” value [1] was 2.7283.

B29: DOMAIN_20667 (protein, listed as Suricata suricatta)
chain: AHGSLMFSDVSIVFSQEEWECLDLEQRDLYRDVMLENYTNLVSLGCFISKPDVISLLEQGKEPWKVVRKRRGQYADLETRY
With B29 the “Log2 (fold change)” value [1] was 3.7485.

B30: DOMAIN_20674 (protein, listed as Mandrillus leucophaeus)
chain: SKAPITFGDLAIYFSQEEWEWLSPIQKDLYEDVMLENYRNLVSLGLSFRRPNVITLLEKGKAPWMIEPVRRRRAPELTEAS
For B30, the “Log2 (fold change)” value [1] was 3.3115.

B31: DOMAIN_20716 (protein, listed as Suricata suricatta)
chain: QAEVTFEDVAVLFSREEWGRLGPAQRGLYRDVMLETYRNLASLGAGRAGSKPGVITQLERGDEPWVLDAQGAKGKGQPRVS
B31 was tested, and the “Log2 (fold change)” value [1] was 3.6174.

B32: DOMAIN_20729 (protein, listed as Mandrillus leucophaeus)
chain: VHGSVTFRDVAIDFSQEEWECLQPDQRTLYRDVMLENYSHLISLGSSISKPDVITLLEQEQEPWMVVRKETNRWYPDLESK
In the case of B32, the “Log2 (fold change)” value [1] is reported as 2.5535.

B33: DOMAIN_362 (protein, listed as Pan paniscus)
chain: MALRSVMFSDVSIDFSPEEWEYLDLEQKDLYRDVMLENYSNLVSLAGCFISKPDVISSLEQGKEPWKVVRKGRRQYPDLET
B33 was tested, and the “Log2 (fold change)” value [2] was 3.6736.

B34: DOMAIN_20767 (protein, listed as Sus scrofa)
chain: CKESVIFKDVCVNFSLEEWECLDLTQRNLYRCVMLENYSNLVSVGLSIPKPDVISLLEQGKEPWGVFDSEMTRGLNQDCGS
For B34, the “Log2 (fold change)” value [1] was 3.1224.

B35: DOMAIN_20835 (protein, listed as Suricata suricatta)
chain: KPGVLTFADVAVYFSSEEWGCLRPAQRALYRDVMRETYGHLGALGFPGPKPALISWMEQESEESEAWSPAAKDPEEGESLG
For B35, the “Log2 (fold change)” value [1] was 3.0025.

B36: DOMAIN_20915 (protein, listed as Mandrillus leucophaeus)
chain: GPLTFRDVAIEFSQEEWKSLDPVQKALYWDVMLENYRNLVFLGILPKCMTKELPPIGNSNTGEKFQRVMLERHECYDIENF
With B36 the “Log2 (fold change)” value [1] was 2.4373.

B37: DOMAIN_20998 (protein, listed as Pan paniscus)
chain: SPGLLTFRDVVIEFSLEEWQCLDHAQQNLYRDVMLENYRNLVSLGIAVSKPDLITCLEQNKDPWNIKRNEMVTKHPVMCSH
With B37 the “Log2 (fold change)” value [1] was 2.6659.
